7 molecules from PMC4737077 can be followed below.

Amino acid sequences for entries named in this document (tags omitted). A change or cut given only in a name is not applied to a line headed by its entry. Residues count along the entry.
UniProt Q43125: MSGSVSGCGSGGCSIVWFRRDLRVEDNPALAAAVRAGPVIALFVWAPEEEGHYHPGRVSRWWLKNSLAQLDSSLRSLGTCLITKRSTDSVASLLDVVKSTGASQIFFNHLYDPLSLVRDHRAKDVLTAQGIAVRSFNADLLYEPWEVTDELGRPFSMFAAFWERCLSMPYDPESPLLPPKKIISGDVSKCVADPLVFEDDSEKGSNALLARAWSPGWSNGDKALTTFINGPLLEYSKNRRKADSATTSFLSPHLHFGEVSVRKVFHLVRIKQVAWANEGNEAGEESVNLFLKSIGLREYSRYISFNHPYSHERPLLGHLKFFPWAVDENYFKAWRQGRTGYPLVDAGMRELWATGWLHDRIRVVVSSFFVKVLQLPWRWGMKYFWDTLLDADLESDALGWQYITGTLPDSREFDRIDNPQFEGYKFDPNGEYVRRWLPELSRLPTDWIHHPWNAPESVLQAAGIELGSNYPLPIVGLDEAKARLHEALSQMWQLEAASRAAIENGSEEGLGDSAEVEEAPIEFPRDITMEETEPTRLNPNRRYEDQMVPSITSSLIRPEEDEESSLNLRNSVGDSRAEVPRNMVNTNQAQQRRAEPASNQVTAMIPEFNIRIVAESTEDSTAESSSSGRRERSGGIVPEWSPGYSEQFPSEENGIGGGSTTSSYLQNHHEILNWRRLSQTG
CRY1N^515 (amino acids 1-515), GAL4 DNA-binding domain fusion: residues 1-515 of Q43125
CRY1N^505 (amino acids 1-505), BiFC fusion: residues 1-505 of Q43125

Results are given in words; binding and its absence hold for the method and conditions named. For some of these results: In cells and extracts the contact can be indirect. Some binding calls cover weakened binding; strength is not graded here. Where a sequence is shown, tags or fusion partners need not be part of it.

Experiment [1] concerns the target T1, Myc-TCP2 (Arabidopsis thaliana) (UniProt Q93V43).
T1 sequence: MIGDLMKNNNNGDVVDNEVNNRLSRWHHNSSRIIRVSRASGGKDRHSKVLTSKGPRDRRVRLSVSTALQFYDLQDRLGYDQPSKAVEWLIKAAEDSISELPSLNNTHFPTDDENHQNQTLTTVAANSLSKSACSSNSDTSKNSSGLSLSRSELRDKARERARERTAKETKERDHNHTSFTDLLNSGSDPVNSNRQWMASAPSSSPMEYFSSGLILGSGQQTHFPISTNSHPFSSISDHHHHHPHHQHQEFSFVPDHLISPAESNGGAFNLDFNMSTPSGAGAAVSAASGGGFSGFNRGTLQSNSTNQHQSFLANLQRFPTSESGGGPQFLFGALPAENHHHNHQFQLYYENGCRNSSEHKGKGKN
The experiment can be described thus: co-IP; extract of leaves of 35S::Myc-TCP2/WT Arabidopsis, dark 16 h, 50 μM MG132 4 h, then blue light (35 μmol m^-2 s^-1) for 0, 30 or 240 min; agarose conjugated with anti-Myc antibody, NEB buffer (20 mM HEPES pH 7.5, 40 mM KCl, 1 mM EDTA, 1% Triton X-100), 4 °C; blot with anti-CRY1.

Experiment [2] concerns the target cryptochrome 1 (CRY1), GAL4 DNA-binding domain fusion (Arabidopsis) (UniProt Q43125). The experiment can be described thus: two-hybrid; BD-CRY1 in pBridge as bait, AD fusions of TCP2 fragments in pGADT7 as prey, co-transformed into AH109; auxotrophy and liquid (β-gal) assays under different light.
Experiment [3] has the same target. The experiment can be described thus: condition: only red light (18 μmol m^-2 s^-1) or darkness for 4 h, without blue light; two-hybrid; same yeast, β-gal liquid assay in red light (18 μmol m^-2 s^-1) or darkness for 4 h, no blue light.
Experiment [4] addresses CRY1N^515 (amino acids 1-515), GAL4 DNA-binding domain fusion (Arabidopsis) (UniProt Q43125). The experiment can be described thus: two-hybrid; BD fusions of CRY1 fragments in pDEST32 as bait, AD-TCP2 in pDEST22 as prey, co-transformed into AH109; auxotrophy on SD/-Trp/-Leu/-His/+10 mM 3-AT under blue, red, far-red light or darkness at 28 °C for 3 d; β-gal assay with CPRG.
In experiment [5] the target is CRY1N^505 (amino acids 1-505), GAL4 DNA-binding domain fusion (Arabidopsis) (UniProt Q43125). The description is as above.
The target of experiment [6] is cryptochrome 1 (CRY1), GAL4 DNA-binding domain fusion (Arabidopsis) (UniProt Q43125). Kind of experiment: two-hybrid; blue-light-differentiated screen of a library of >1000 Arabidopsis transcription factors (AH109 with BD-CRY1 in pDEST32 mated with Y187 library clones); β-gal liquid assay in blue light (10, 25, 40 μmol m^-2 s^-1).
The target in experiment [7] is CRY1N^505 (amino acids 1-505), BiFC fusion (Arabidopsis) (UniProt Q43125). Kind of experiment: split reporter; BiFC in Nicotiana benthamiana leaves, CRY1N505 and TCP2; light treatment told only in Supplementary Fig. S2C, D.

As to “cryptochrome 1 (CRY1), endogenous (from UniProt Q43125 1-681)”, the binding entry in experiment [1] is given as “binds”.

B1: TCP2 TCP fragment (amino acids 1-174), GAL4 activation domain fusion (domain or fragment, UniProt Q93V43 1-174)
chain: MIGDLMKNNNNGDVVDNEVNNRLSRWHHNSSRIIRVSRASGGKDRHSKVLTSKGPRDRRVRLSVSTALQFYDLQDRLGYDQPSKAVEWLIKAAEDSISELPSLNNTHFPTDDENHQNQTLTTVAANSLSKSACSSNSDTSKNSSGLSLSRSELRDKARERARERTAKETKERDH
B1: in experiment [2], the binding entry is reported as “binds”.

B2: TCP2 CT domain (amino acids 175-365), GAL4 activation domain fusion (domain or fragment, UniProt Q93V43 175-365)
chain: NHTSFTDLLNSGSDPVNSNRQWMASAPSSSPMEYFSSGLILGSGQQTHFPISTNSHPFSSISDHHHHHPHHQHQEFSFVPDHLISPAESNGGAFNLDFNMSTPSGAGAAVSAASGGGFSGFNRGTLQSNSTNQHQSFLANLQRFPTSESGGGPQFLFGALPAENHHHNHQFQLYYENGCRNSSEHKGKGKN
For B2, in experiment [2], the binding result is listed as “binds weakly”.

B3: TCP2 TCPn domain (amino acids 1-150), GAL4 activation domain fusion (domain or fragment, UniProt Q93V43 1-150)
chain: MIGDLMKNNNNGDVVDNEVNNRLSRWHHNSSRIIRVSRASGGKDRHSKVLTSKGPRDRRVRLSVSTALQFYDLQDRLGYDQPSKAVEWLIKAAEDSISELPSLNNTHFPTDDENHQNQTLTTVAANSLSKSACSSNSDTSKNSSGLSLSR
B3: in experiment [2], the binding result was “binds”.

B4: TEOSINTE-LIKE1, CYCLOIDEA, and PRO… CELL FACTOR 2 (TCP2), GAL4 activation domain fusion (protein, UniProt Q93V43 1-365)
chain: T1 sequence
For B4, the binding entry in experiment [3] is “no binding”; in experiment [4], “binds”; in experiment [5], “binds”; in experiment [6], “binds”.

B5: nYFP-TCP2 (N-terminal region of yellow fluorescent protein fused to TCP2) (protein, UniProt Q93V43 1-365)
chain: T1 sequence
Regarding B5, the binding entry in experiment [7] is listed as “binds”.

B6: TCP2 R&CT domain (amino acids 151-365), GAL4 activation domain fusion (domain or fragment, UniProt Q93V43 151-365)
chain: SELRDKARERARERTAKETKERDHNHTSFTDLLNSGSDPVNSNRQWMASAPSSSPMEYFSSGLILGSGQQTHFPISTNSHPFSSISDHHHHHPHHQHQEFSFVPDHLISPAESNGGAFNLDFNMSTPSGAGAAVSAASGGGFSGFNRGTLQSNSTNQHQSFLANLQRFPTSESGGGPQFLFGALPAENHHHNHQFQLYYENGCRNSSEHKGKGKN
As to B6, the binding entry in experiment [2] was “binds weakly”.
